Our source for the cell count values is the supplement of paper PMC4604168 (melanoma cell lines).

Some of the results follow. Most values come without repeats; read them as rough.
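Also: cells treated in 1,536-well plates, then fixed and DAPI-stained, with nuclei counted from automated high-throughput microscope images.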

One test relates to 501Mel. The experiment in a line: cell count relative to DMSO control; melanoma cells; higher = more viable cells. Conditions: library dose: standard library concentration; 72 h.
With `O=C(O)c1ccc2c(c1)nc(Nc1cccc(Cl)c1)c1ccncc12` + Oc1cc(-c2nc(-c3ccccc3)[nH]c2-c2ccncc2)ccc1Cl [L779450] (first compound 2 µM, partner dose 1 µM), the cell count came out at 65.4%.
Still for that read-out and setting: next, `O=C(O)c1ccc2c(c1)nc(Nc1cccc(Cl)c1)c1ccncc12` + CCN(CC)CCCCNc1ncc2cc(-c3cc(OC)cc(OC)c3)c(NC(=O)NC(C)(C)C)nc2n1 [PD173074] (first compound 2 µM, partner dose 0.5 µM): 87%; `O=C(Nc1ccccc1)c1cc([N+](=O)[O-])ccc1Cl` + COc1ccc2c(c1)CCC1C2CCC2(C)C(NCCCCCCN3C(=O)C=CC3=O)CCC12 [U73122] (first compound 10 µM, partner dose 2 µM): 93.6%; `O=C(O)[C@@H]1[O][Sb](=[O])([O][Sb]2(=[O])[O][C@H]([C@H](O)CO)[C@H](O)[C@H](C(=O)O)[O]2)[O][C@H]([C@H](O)CO)[C@@H]1O` (stereo partly specified) [stibogluconate] + O=c1cc(-c2cccc3c2Sc2ccccc2S3)oc(N2CCOCC2)c1 [KU55933] (first compound 10 µM, partner dose 5 µM): 70%.
On the same count and under the same terms, next, `O=C(O)[C@@H]1[O][Sb](=[O])([O][Sb]2(=[O])[O][C@H]([C@H](O)CO)[C@H](O)[C@H](C(=O)O)[O]2)[O][C@H]([C@H](O)CO)[C@@H]1O` (stereo partly specified) [stibogluconate] + COC(=O)c1sccc1S(=O)(=O)Nc1ccc(Nc2ccccc2)cc1OC [GSK0660] (first compound 10 µM, partner dose 5 µM): 69.3%; `Cn1nnc2c(C(N)=O)ncn2c1=O` [temozolomide] + CCc1ccc(CCOc2ccc(CC3SC(=O)NC3=O)cc2)nc1 [pioglitazone] (first compound 10 µM, partner dose 10 µM): 83.9%; `O=C(Nc1cc(C(F)(F)F)cc(C(F)(F)F)c1)c1cc(Cl)ccc1O` + c1cc(-c2cnn3cc(-c4ccc(OCCN5CCCCC5)cc4)cnc23)ccn1 [Dorsomorphin] (first compound 0.08 µM, partner dose 2 µM): 68.7%.
Turning to `O=C(Nc1ccccc1)c1cc([N+](=O)[O-])ccc1Cl` + c1cc(-c2cnn3cc(-c4ccc(OCCN5CCCCC5)cc4)cnc23)ccn1 [Dorsomorphin] (first compound 10 µM, partner dose 2 µM), the cell count was 35.6%.
`O=C(Nc1cc(C(F)(F)F)cc(C(F)(F)F)c1)c1cc(Cl)ccc1O` + COc1ccc(-c2ccc3c(N4CCOCC4)nc(N4C[C@@H](C)O[C@@H](C)C4)nc3n2)cc1CO [KU0063794] (first compound 0.08 µM, partner dose 0.1 µM): the cell count stood at 90%.

A further test concerns A101D. The description is as above. Conditions: library dose: standard library concentration; 72 h.
Regarding `O=C(O)c1ccc2c(c1)nc(Nc1cccc(Cl)c1)c1ccncc12` + CC(C)(C)c1cnc(CSc2cnc(NC(=O)C3CCNCC3)s2)o1 [SNS-032] (first compound 2 µM, partner dose 0.05 µM), the cell count worked out at 63.3%.
With `O=C(Nc1cc(C(F)(F)F)cc(C(F)(F)F)c1)c1cc(Cl)ccc1O` + O=C(O)c1ccc2c(c1)nc(Nc1cccc(Cl)c1)c1ccncc12 [CX4945] (first compound 0.08 µM, partner dose 2 µM), the cell count is 116%.
In turn, `Cn1nnc2c(C(N)=O)ncn2c1=O` [temozolomide] + COc1cc2c(Oc3ccc4[nH]c(C)cc4c3F)ncnc2cc1OCCCN1CCCC1 [cediranib] (first compound 10 µM, partner dose 2 µM) displayed a cell count of 90.9%.
`O=C(Nc1cc(C(F)(F)F)cc(C(F)(F)F)c1)c1cc(Cl)ccc1O` + Clc1ccc(Nc2nnc(Cc3ccncc3)c3ccccc23)cc1 [vatalanib] (first compound 0.08 µM, partner dose 10 µM): the cell count came to 77.5%.
Same read-out and setting: next, `O=C(O)c1ccc2c(c1)nc(Nc1cccc(Cl)c1)c1ccncc12` + Oc1cc(-c2nc(-c3ccccc3)[nH]c2-c2ccncc2)ccc1Cl [L779450] (first compound 2 µM, partner dose 1 µM): 51.9%.
The same measure, in the same setting: next, `O=C(O)c1ccc2c(c1)nc(Nc1cccc(Cl)c1)c1ccncc12` + O=C(Nc1cccc(Cl)c1)Nc1ncc(CCNc2ncnc3ccsc23)s1 [SNS314] (first compound 2 µM, partner dose 0.004 µM): 71.9%; `O=C(Nc1cc(C(F)(F)F)cc(C(F)(F)F)c1)c1cc(Cl)ccc1O` + Cc1cn(-c2cc(NC(=O)c3ccc(C)c(Nc4nccc(-c5cccnc5)n4)c3)cc(C(F)(F)F)c2)cn1 [nilotinib] (first compound 0.08 µM, partner dose 1 µM): 117%.
Consider `Cc1cc(N2CCOCC2)cc2[nH]c(-c3c(NC[C@@H](O)c4cccc(Cl)c4)cc[nH]c3=O)nc12` + Cn1cncc1[C@@](N)(c1ccc(Cl)cc1)c1ccc2c(c1)c(-c1cccc(Cl)c1)cc(=O)n2C [tipifarnib] (first compound 1 µM, partner dose 0.05 µM), for which the cell count is 71.3%.
On the same count and under the same terms, to `Cn1nnc2c(C(N)=O)ncn2c1=O` [temozolomide] + NCC(=O)Nc1ccc(-n2nc(C(F)(F)F)cc2-c2ccc3c(ccc4ccccc43)c2)cc1 [OSU03012] (first compound 10 µM, partner dose 5 µM) belongs 90.1%.
The same measure, in the same setting: next, `O=C(Nc1cc(C(F)(F)F)cc(C(F)(F)F)c1)c1cc(Cl)ccc1O` + C#Cc1cccc(Nc2ncnc3cc(OCCOC)c(OCCOC)cc23)c1 [erlotinib] (first compound 0.08 µM, partner dose 4 µM): 65.9%; `O=C(O)[C@@H]1[O][Sb](=[O])([O][Sb]2(=[O])[O][C@H]([C@H](O)CO)[C@H](O)[C@H](C(=O)O)[O]2)[O][C@H]([C@H](O)CO)[C@@H]1O` (stereo partly specified) [stibogluconate] + Cc1cc(N2CCOCC2)cc2[nH]c(-c3c(NC[C@@H](O)c4cccc(Cl)c4)cc[nH]c3=O)nc12 [BMS536924] (first compound 10 µM, partner dose 1 µM): 111%.
`O=C(Nc1cc(C(F)(F)F)cc(C(F)(F)F)c1)c1cc(Cl)ccc1O` + C=CCNC1=C2C[C@@H](C)C[C@H](OC)[C@H](O)[C@@H](C)/C=C(\C)[C@H](OC(N)=O)[C@@H](OC)/C=C\C=C(/C)C(=O)NC(=CC1=O)C2=O [Tanespimycin] (first compound 0.08 µM, partner dose 0.01 µM) gave a cell count of 75.7%.
Same read-out and setting: next, `O=C(O)c1ccc2c(c1)nc(Nc1cccc(Cl)c1)c1ccncc12` + CCN(CC)CCCCNc1ncc2cc(-c3cc(OC)cc(OC)c3)c(NC(=O)NC(C)(C)C)nc2n1 [PD173074] (first compound 2 µM, partner dose 0.5 µM): 91.2%.
`O=C(O)c1ccc2c(c1)nc(Nc1cccc(Cl)c1)c1ccncc12` + NCC(=O)Nc1ccc(-n2nc(C(F)(F)F)cc2-c2ccc3c(ccc4ccccc43)c2)cc1 [OSU03012] (first compound 2 µM, partner dose 5 µM) yielded a cell count of 78.3%.
The compound `O=C(Nc1ccccc1)c1cc([N+](=O)[O-])ccc1Cl` + COc1ccc2c(c1)CCC1C2CCC2(C)C(NCCCCCCN3C(=O)C=CC3=O)CCC12 [U73122] (first compound 10 µM, partner dose 2 µM) yielded a cell count of 46.6%.
`O=C(O)[C@@H]1[O][Sb](=[O])([O][Sb]2(=[O])[O][C@H]([C@H](O)CO)[C@H](O)[C@H](C(=O)O)[O]2)[O][C@H]([C@H](O)CO)[C@@H]1O` (stereo partly specified) [stibogluconate] + Nc1ncn([C@H]2C[C@H](O)[C@@H](CO)O2)c(=O)n1 [decitabine] (first compound 10 µM, partner dose 0.5 µM): the cell count is 93.1%.
On the same count and under the same terms, to `O=C(Nc1cc(C(F)(F)F)cc(C(F)(F)F)c1)c1cc(Cl)ccc1O` + COc1cc(Nc2ncc(F)c(Nc3ccc4c(n3)NC(=O)C(C)(C)O4)n2)cc(OC)c1OC [Tamatinib] (first compound 0.08 µM, partner dose 2 µM) belongs 22.7%; to `O=C(Nc1cc(C(F)(F)F)cc(C(F)(F)F)c1)c1cc(Cl)ccc1O` + CC(C)(C)c1cnc(CSc2cnc(NC(=O)C3CCNCC3)s2)o1 [SNS-032] (first compound 0.08 µM, partner dose 0.05 µM), 116%.
Same read-out and setting: to `O=C(O)[C@@H]1[O][Sb](=[O])([O][Sb]2(=[O])[O][C@H]([C@H](O)CO)[C@H](O)[C@H](C(=O)O)[O]2)[O][C@H]([C@H](O)CO)[C@@H]1O` (stereo partly specified) [stibogluconate] + N#Cc1c(O)c2c(-c3ccc(-c4ccccc4O)cc3)csc2[nH]c1=O [A769662] (first compound 10 µM, partner dose 10 µM) belongs 124%; to `O=C(O)[C@@H]1[O][Sb](=[O])([O][Sb]2(=[O])[O][C@H]([C@H](O)CO)[C@H](O)[C@H](C(=O)O)[O]2)[O][C@H]([C@H](O)CO)[C@@H]1O` (stereo partly specified) [stibogluconate] + O=c1cc(-c2cccc3c2Sc2ccccc2S3)oc(N2CCOCC2)c1 [KU55933] (first compound 10 µM, partner dose 5 µM), 86.2%.
Compound `O=C(O)[C@@H]1[O][Sb](=[O])([O][Sb]2(=[O])[O][C@H]([C@H](O)CO)[C@H](O)[C@H](C(=O)O)[O]2)[O][C@H]([C@H](O)CO)[C@@H]1O` (stereo partly specified) [stibogluconate] + COC(=O)c1sccc1S(=O)(=O)Nc1ccc(Nc2ccccc2)cc1OC [GSK0660] (first compound 10 µM, partner dose 5 µM) yielded a cell count of 106%.
As for `O=C(O)c1ccc2c(c1)nc(Nc1cccc(Cl)c1)c1ccncc12` + Cn1c(Nc2ccc(C(F)(F)F)cc2)nc2cc(Oc3ccnc(-c4ncc(C(F)(F)F)[nH]4)c3)ccc21 [CHIR265] (first compound 2 µM, partner dose 0.4 µM), the cell count amounted to 56.1%.
